{
  "source": "PubChem BioAssay (NCI)",
  "assay_in_all_cases": "NCI anticancer screen, dose series, 48 h",
  "key": {"CCRF-CEM leukemia": {"tested_on": "CCRF-CEM leukemia"}, "DU-145 prostate": {"tested_on": "DU-145 prostate"}, "OVCAR-8 ovarian": {"tested_on": "OVCAR-8 ovarian"}, "KM12 colon": {"tested_on": "KM12 colon"}, "RPMI-8226 leukemia": {"tested_on": "RPMI-8226 leukemia"}},
  "note": "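A five-concentration, 48-hour dose response in 96-well plates underlies each endpoint, interpolated linearly between surrounding concentrations. TGI: concentration producing complete growth inhibition.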 The source holds more than one record for some entries. This is not the full list of results. The source may hold further records. A record mostly stands for its own series of concentrations, not given here; a value can be the end of its range.",
  "data": [
    {"smiles": "CN1CCN(C(=O)Oc2cc3c(c4ccccc24)[C@H](CCl)CN3C(=O)c2cc3cc(OCCCN4CCC4)ccc3[nH]2)[C@H]2CSSC[C@H]21", "values": [
      {"measurement": "TGI", "setting": "CCRF-CEM leukemia", "value": "585 nM and > 15.3 µM"},
      {"measurement": "TGI", "setting": "DU-145 prostate", "value": "51.1 nM and > 15.3 µM"},
      {"measurement": "TGI", "setting": "OVCAR-8 ovarian", "value": "1.35 µM and 60.2 nM"},
      {"measurement": "TGI", "setting": "KM12 colon", "value": "824 nM and > 15.3 µM"},
      {"measurement": "TGI", "setting": "RPMI-8226 leukemia", "value": "802 nM and > 15.3 µM"}
    ]}
  ]
}
